IC50 is the fitted dose that halves viability relative to control wells, and lower means more sensitive; a limit (>, <) means that the fit lies beyond the doses tested. AUC, from the same fit, is the share of area under the viability curve across the 256-fold dose range; the more sensitive the line, the further below 1. A top dose marked as inferred was calculated from the reported fits. For part of these data: Where an entry number is given, a second screen of the drug exists; the two often differ.

Compound in the first experiment: Cc1cc(N2CCOCC2)cc2[nH]c(-c3c(NC[C@@H](O)c4cccc(Cl)c4)cc[nH]c3=O)nc12 [BMS-536924]
Put plainly: Viability of human cancer cell lines after 72 h of drug (GDSC screen). Conditions: top dose 4 µM; screen: GDSC drug entry 1091; top dose inferred. How it is done: (§1)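 Human cancer cell lines in 384-well plates, medium with 10% serum, drug for 72 h over a 256-fold dose range (nine 2-fold or five 4-fold steps up to the top dose). Adherent lines were fixed and stained with the nucleic acid dye Syto60, suspension lines read with resazurin; signal relative to control wells, capped at 0 and 100%. One two-parameter sigmoid per drug and line, fitted in a mixed model over all curves with the slope shared within a line.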
Broadly, the IC50 is the concentration that inhibits the measured activity by half. Consider JHH-1 (liver, adherent), for which the AUC was 0.975 and the 50% inhibitory concentration (IC50) was over 4 µM.
Turning to K2 (melanoma, adherent), the AUC amounted to 0.902 and the IC50 is over 4 µM.
Consider KMH-2 (thyroid, adherent), for which the AUC was 0.83 and the IC50 is 2.15 µM.
On to KMRC-20 (kidney, adherent), for which the AUC stood at 0.95 and the IC50 is over 4 µM.
Consider KYSE-50 (oesophagus, adherent), for which the AUC was 0.897 and the IC50 is over 4 µM.
As to KYSE-150 (oesophagus, adherent), the AUC is 0.976 and the IC50 was over 4 µM.
The corresponding values for KYSE-220 (oesophagus, adherent) are 0.831 and 2.74 µM.
The matching figures for KYSE-410 (oesophagus, adherent): 0.889 and over 4 µM.
With KYSE-450 (oesophagus, adherent), the AUC turned out to be 0.955 and the IC50 was over 4 µM.
The matching figures for “LCLC-97TM1 (large cell lung carcinoma, adherent)”: 0.83 and 2.86 µM.
On to “LK-2 (lung squamous cell carcinoma, adherent)”, for which the AUC turned out to be 0.908 and the IC50 was over 4 µM.

Compound in another experiment: CNC(=O)c1ccc(Nc2cc(Nc3ccccc3S(=O)(=O)C(C)C)c3cc[nH]c3n2)nc1 [HG-5-113-01]
Described as above. Conditions: top dose 10 µM; top dose inferred. The method, then: as §1
For HEC-1 (endometrium, adherent), the AUC is 0.757 and the IC50 was 3.33 µM.
In the case of HGC-27 (stomach, adherent), the AUC was determined as 0.535 and the IC50 worked out at 0.767 µM.
The corresponding values for HSC-2 (head and neck, adherent) are 0.735 and 2.75 µM.
HT55 (large intestine, adherent): the AUC is 0.851 and the IC50 stood at 7.62 µM.
On to HT-115 (large intestine, adherent), for which the AUC was 0.738 and the half-maximal inhibitory concentration (IC50) is 2.78 µM.
Take HT-1197 (bladder, adherent): the AUC was found to be 0.894 and the IC50 is over 10 µM.
Take Hs683 (glioma, adherent): the AUC came out at 0.881 and the IC50 is over 10 µM.
As to Hs939-T (melanoma, adherent), the AUC was 0.912 and the half-maximal inhibitory concentration (IC50) is over 10 µM.
In the case of HuH-7 (liver, adherent), the AUC amounted to 0.788 and the IC50 is 4.37 µM.
As for HuO9 (osteosarcoma, adherent), the AUC came to 0.792 and the IC50 was found to be 5.08 µM.
Regarding HuP-T3 (pancreas, adherent), the AUC amounted to 0.791 and the IC50 is 5.61 µM.
The matching figures for HuP-T4 (pancreas, adherent): 0.644 and 1.61 µM.
The corresponding values for IGR-1 (melanoma, adherent) are 0.832 and 5.36 µM.
On to IHH-4 (thyroid, semi-adherent), for which the AUC is 0.659 and the IC50 is 1.56 µM.
As for JEG-3 (urogenital system, adherent), the AUC is 0.849 and the IC50 was 6.42 µM.
For JHH-1 (liver, adherent), the AUC worked out at 0.856 and the IC50 came out at 9.22 µM.
With K2 (melanoma, adherent), the AUC worked out at 0.71 and the IC50 came to 2.95 µM.
The corresponding values for KMH-2 (thyroid, adherent) are 0.787 and 3.85 µM.
Regarding KMRC-20 (kidney, adherent), the AUC is 0.877 and the IC50 was over 10 µM.
KYSE-50 (oesophagus, adherent): the AUC turned out to be 0.773 and the IC50 is 3.57 µM.
Consider KYSE-150 (oesophagus, adherent), for which the AUC came to 0.862 and the half-maximal inhibitory concentration (IC50) came to 7.95 µM.
Regarding KYSE-220 (oesophagus, adherent), the AUC amounted to 0.664 and the IC50 worked out at 1.84 µM.
As for KYSE-410 (oesophagus, adherent), the AUC is 0.742 and the IC50 amounted to 3.25 µM.
On to KYSE-450 (oesophagus, adherent), for which the AUC was 0.755 and the half-maximal inhibitory concentration (IC50) stood at 3.23 µM.
Turning to “LCLC-97TM1 (large cell lung carcinoma, adherent)”, the AUC stood at 0.655 and the IC50 was 1.76 µM.
On to “LK-2 (lung squamous cell carcinoma, adherent)”, for which the AUC turned out to be 0.658 and the IC50 worked out at 1.67 µM.

Compound in the next experiment: Cc1ccc(-n2nc(C(C)(C)C)cc2NC(=O)Nc2ccc(OCCN3CCOCC3)c3ccccc23)cc1 [BIRB 0796]
The experiment is described as above. Conditions: top dose 10 µM; top dose inferred. How it is done: as §1
As to HEC-1 (endometrium, adherent), the AUC is 0.989 and the IC50 is over 10 µM.
Regarding HGC-27 (stomach, adherent), the AUC came out at 0.959 and the IC50 is over 10 µM.
HSC-2 (head and neck, adherent): the AUC is 0.986 and the IC50 was over 10 µM.
As for HT55 (large intestine, adherent), the AUC was 0.979 and the IC50 was over 10 µM.
Turning to HT-115 (large intestine, adherent), the AUC worked out at 0.988 and the IC50 is over 10 µM.
For the cell line HT-1197 (bladder, adherent), the AUC is 0.966 and the half-inhibitory concentration (IC50) is over 10 µM.
The matching figures for Hs683 (glioma, adherent): 0.967 and over 10 µM.
Take Hs939-T (melanoma, adherent): the AUC was determined as 0.941 and the IC50 was over 10 µM.
The corresponding values for HuH-7 (liver, adherent) are 0.959 and over 10 µM.
As to HuO9 (osteosarcoma, adherent), the AUC amounted to 0.943 and the IC50 was over 10 µM.
For the cell line HuP-T3 (pancreas, adherent), the AUC is 0.936 and the IC50 is over 10 µM.
With HuP-T4 (pancreas, adherent), the AUC is 0.966 and the 50% inhibitory concentration (IC50) was over 10 µM.
Consider IGR-1 (melanoma, adherent), for which the AUC turned out to be 0.99 and the IC50 was over 10 µM.
Regarding IHH-4 (thyroid, semi-adherent), the AUC came to 0.924 and the IC50 is over 10 µM.
As for JEG-3 (urogenital system, adherent), the AUC was found to be 0.967 and the IC50 is over 10 µM.
The matching figures for JHH-1 (liver, adherent): 0.958 and over 10 µM.
Regarding K2 (melanoma, adherent), the AUC is 0.971 and the IC50 is over 10 µM.
The matching figures for KMH-2 (thyroid, adherent): 0.989 and over 10 µM.
As to KMRC-20 (kidney, adherent), the AUC was determined as 0.989 and the IC50 is over 10 µM.
Regarding KYSE-50 (oesophagus, adherent), the AUC was found to be 0.984 and the IC50 was over 10 µM.
